Assay results as given in the supplement of paper PMC10338343.
± gives the standard deviation. Only a part is listed here, and it is no random draw.

test system: MIWI (PIWIL1) piRISC loaded with L1MC piRNA (30 nt); experiment: pre-steady-state target cleavage rate (min^-1); MIWI and MILI are mouse PIWI proteins and EfPiwi is from a freshwater sponge; tags in brackets are library labels; higher = faster piRNA-guided slicing of the target; details: guide: L1MC piRNA 5'p-UAACUAAAUACUAUGCAAGCUGUAGGUCCU; auxiliary factor: 500 nM mouse GTSF1
Procedure: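 Cleave-'n-Seq: a library of target RNAs (target site embedded in constant flanks, ACAGCATTCCGCGTTAGTGATATCCG... 5' flank; DNA-blocked outside the site) at 0.1 nM was incubated with 1 nM active mouse MILI or MIWI piRISC (synthetic 5'-monophosphorylated piRNA guide) with or without 500 nM mouse GTSF1 at 33 °C for 1 min to 16 h. Uncleaved targets were sequenced and normalised to non-target controls, and the pooled three trials were fitted to a burst-and-steady-state model to give the pre-steady-state cleavage rate (min^-1; k3 is constrained to at most 1e-4). Sequence is the target site only; target names encode pairing extent (gX:gY) and contiguous / 1-mismatch / 2-mismatch / bulge geometry. Fits with R² ≤ 0 are excluded.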

Compared with AGGACCUUCAGCUUGCAUAGUAUAUAGUUA, UCCUCCUACAGGUUGCAUAGUAUUUAGAUA is lower in “pre-steady-state target cleavage rate” value: 0.827 ± 0.057 for the first, 0.346 ± 0.044 for the second.

Going from UCCACCUACAGCUUGCAUAGAUUUUAGAAA to “AGGACCUACAGCUUGCAUAGUAUUUAGUUC [g2:g30:cont:t1C]”, the “pre-steady-state target cleavage rate” value rises from 0.0447 ± 0.017 to 0.664 ± 0.055.

First: UCCUGGAUGAGCUAUGCAUAGUAUUUAGUUA
Second: UCGACCUACAGCUUGGAUAGUAUUUACUUA
The “pre-steady-state target cleavage rate” value of the first is higher: 0.636 ± 0.033 for the first, 0.491 ± 0.046 for the second.

Going from UCCUGGUACUGCUUGCAUAGUUUUUAGUUA to AGGACCUACAGCUUGCAAAGUAUAUAGUUA, the “pre-steady-state target cleavage rate” value rises from 0.142 ± 0.028 to 0.667 ± 0.049.

Going from AGGACCUACAGCUUGGAUAGUAUUUAGUUA to AGGACCUACAGCUUGCAUAGUAUAAUGUAA, the “pre-steady-state target cleavage rate” value falls from 1.67 ± 0.052 to 0.343 ± 0.064.

First: AGGACCAACAGCUAGCAUAGUAUUUAGUUA
Second: UGGACCUACAGCUUGCAUAGUAUAAAGUUA
The “pre-steady-state target cleavage rate” value of the first is higher: 1.08 ± 0.052 for the first, 0.519 ± 0.043 for the second.

Going from UGGACCCACAGCUUGCAUAGUAUUUAGUUA to UCCUGCAACAGCUUGCAUAGUAUUUAGAUA, the “pre-steady-state target cleavage rate” value falls from 1.43 ± 0.091 to 0.398 ± 0.04.

Compared with AGGACCUACAGCUUGCAUAGUAAUUACAAA, UCGACCUGACAGCUUGCAUAGUAUUUAGUUA is higher in “pre-steady-state target cleavage rate” value: 0.378 ± 0.07 for the first, 1.25 ± 0.057 for the second.

UCCUGGAACAGCUUGCUAAGUAUUUAGUAA and UCCUGGAUGUGCUUGCAUAGUAUUUAGUCUA are within error of each other in “pre-steady-state target cleavage rate” value: 0.0228 ± 0.0071 for the first, 0.0254 ± 0.0057 for the second.

Compared with “UCCUGGAUGUCGAACGUAUCAUAUUAGUUU [g2:g7:cont:t1U]”, AGGACCUUGUGCUUGCAUAGUAUUUAGUAA is higher in “pre-steady-state target cleavage rate” value: < 0.0001 for the first, 0.608 ± 0.073 for the second.

Going from UCCUGGAUGUCCUAGCAUAGUAUUAAGUUA to UCGACCUACAGCUUGCAUAGUAUUUAAUUA, the “pre-steady-state target cleavage rate” value rises from 0.00457 ± 0.0044 to 0.315 ± 0.024.

same assay, conditions: guide: L1MC piRNA 5'p-UAACUAAAUACUAUGCAAGCUGUAGGUCCU; auxiliary factor: none (no GTSF1)

Compared with AGGACCUUCAGCUUGCAUAGUAUAUAGUUA, UCCUCCUACAGGUUGCAUAGUAUUUAGAUA is lower in “pre-steady-state target cleavage rate” value: 0.0427 ± 0.009 for the first, 0.00751 ± 0.0014 for the second.

Compared with “AGGACCUACAGCUUGCAUAGUAUUUAGUUC [g2:g30:cont:t1C]”, UCCUGGAUGAGCUAUGCAUAGUAUUUAGUUA is lower in “pre-steady-state target cleavage rate” value: 0.0568 ± 0.01 for the first, 0.0145 ± 0.0038 for the second.

Compared with UCGACCUACAGCUUGGAUAGUAUUUACUUA, UCCUGGUACUGCUUGCAUAGUUUUUAGUUA is lower in “pre-steady-state target cleavage rate” value: 0.046 ± 0.0086 for the first, 0.0188 ± 0.0057 for the second.

Going from AGGACCUACAGCUUGCAAAGUAUAUAGUUA to AGGACCUACAGCUUGGAUAGUAUUUAGUUA, the “pre-steady-state target cleavage rate” value rises from 0.0238 ± 0.0054 to 0.0813 ± 0.013.

Compared with AGGACCUACAGCUUGCAUAGUAUAAUGUAA, AGGACCAACAGCUAGCAUAGUAUUUAGUUA is higher in “pre-steady-state target cleavage rate” value: 0.00382 ± 0.0035 for the first, 0.038 ± 0.01 for the second.

Compared with UGGACCUACAGCUUGCAUAGUAUAAAGUUA, UGGACCCACAGCUUGCAUAGUAUUUAGUUA is higher in “pre-steady-state target cleavage rate” value: 0.0182 ± 0.0049 for the first, 0.0699 ± 0.011 for the second.

Going from UCCUGCAACAGCUUGCAUAGUAUUUAGAUA to UCGACCUGACAGCUUGCAUAGUAUUUAGUUA, the “pre-steady-state target cleavage rate” value rises from 0.0238 ± 0.0089 to 0.0632 ± 0.011.

UCCUGGAACAGCUUGCUAAGUAUUUAGUAA and UCCUGGAUGUGCUUGCAUAGUAUUUAGUCUA are within error of each other in “pre-steady-state target cleavage rate” value: 0.00385 ± 0.0023 for the first, 0.00502 ± 0.0031 for the second.

AGGACCUUGUGCUUGCAUAGUAUUUAGUAA and UCGACCUACAGCUUGCAUAGUAUUUAAUUA are within error of each other in “pre-steady-state target cleavage rate” value: 0.0299 ± 0.0073 for the first, 0.0439 ± 0.0095 for the second.
